Data published in PubChem BioAssay AID743286 (National Center for Advancing Translational Sciences (NCATS), 2014).
The campaign covered roughly 1,100 compounds. About 340 (31%) were called active. Inconclusive results, whose numbers are uncertain, are shown with a selection of clear calls. Calls come from the whole dose curve; as a rule, active = well fitted inhibition curve with a large enough effect; inconclusive = small, poorly fitted or top-dose-only effect; inactive = flat fitted curve, though single readings scatter. Potencies beside an inconclusive call are fits to weak or partial responses and may not hold up.

target: Phosphatidylinositol 5-phosphate 4-kinase type-2 alpha (Homo sapiens) (UniProt P48426); test: qHTS for Inhibitors of PI5P4K: Confirmation in Primary Assay; settings: PI5P4Kalpha enzyme, ADP-Glo luminescence, 60 min; activity change, negative = inhibition: at 76.9 µM (top of the series); note: nearly all actives have a fitted effect of over 65% in size
Summary of the method: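 ADP-Glo luminescence end-point quantified ADP produced by PI5P4Kα after 60 min at room temperature with 5 microM ATP. Buffer: HEPES pH 7.4, EGTA, 0.1% CHAPS, 5% DMSO final; compounds added before ATP.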
% is set by controls: 0 for no effect and ±100 for the full control effect; potency is the fitted concentration of half-maximal effect; tags give direction and shape of the fitted curve.

UniProt P48426, sequence (P48426 whole entry, looked up): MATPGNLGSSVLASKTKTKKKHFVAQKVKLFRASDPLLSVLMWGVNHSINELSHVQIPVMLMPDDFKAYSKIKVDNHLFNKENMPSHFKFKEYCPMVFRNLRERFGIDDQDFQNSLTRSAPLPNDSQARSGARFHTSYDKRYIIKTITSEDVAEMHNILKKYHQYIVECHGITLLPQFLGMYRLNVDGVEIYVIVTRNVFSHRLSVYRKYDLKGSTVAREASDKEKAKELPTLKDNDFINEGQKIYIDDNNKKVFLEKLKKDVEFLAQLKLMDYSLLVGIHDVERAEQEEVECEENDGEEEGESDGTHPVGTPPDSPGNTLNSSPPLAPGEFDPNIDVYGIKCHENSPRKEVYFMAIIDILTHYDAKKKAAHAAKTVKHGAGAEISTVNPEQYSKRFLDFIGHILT

| Structure (SMILES) | activity change, negative = inhibition | Potency |
| --- | --- | --- |
| CCOC(=O)[C@]12CCCC=C1N(Cc1ccccc1)C(=O)[C@H](CC(=O)NCCCOC)C2 | inactive: -0.167% |  |
| CS(=O)(=O)c1sc2nc(-c3cccs3)cc(-c3ccccc3)c2c1N |  | inconclusive: 15.8 µM [inhibitor, partial curve] |
| COc1ccccc1N(CC(=O)N1CCC(C(N)=O)CC1)S(=O)(=O)c1ccccc1 | inactive: -7.71% |  |
| CC(=O)c1ccc(NC(=O)c2noc3c2CCC3)cc1 |  | active: 35.5 µM |
| Cc1cc(-c2nc3c4c5c(sc4[nH]c(=O)n3n2)CCC5)c(C)o1 |  | active: 15.8 µM |
| COC(=O)c1[nH]cnc1C(=O)c1ccccc1 |  | inconclusive: 22.4 µM [inhibitor, partial curve] |
| CCOc1ccccc1-n1c(SCC(=O)Nc2ccccc2C(=O)O)nc2ccccc2c1=O |  | inconclusive: 17.8 µM [inhibitor, partial curve] |
| CNC(=O)COC(=O)c1cc(-c2ccco2)nc2ccccc12 |  | active: 12.6 µM |
| O=C(COC(=O)CCC(=O)c1ccc(Cl)cc1)NCc1ccco1 |  | inconclusive: 31.6 µM [inhibitor, partial curve] |
| O=C(COC(=O)C1CC2C=CC1C2)NCc1ccco1 (stereo not given) |  | inconclusive: 17.8 µM [inhibitor, partial curve] |
| CCOc1ccc2[nH]c(=O)c(C(c3nnnn3Cc3ccco3)N3CCCC(C)C3)cc2c1 (stereo not given) |  | inconclusive: 22.4 µM [inhibitor, partial curve] |
| CN(Cc1ccccc1)C(=O)c1csc([C@H]2C[C@H](O)[C@@H](CO)O2)n1 | inactive: -0.235% |  |
| Cc1nc(N2CCC(C)CC2)c2c(C)c(C(=O)O)sc2n1 |  | inconclusive: 31.6 µM [inhibitor, partial curve] |
| c1ccc2c(CCNc3ncnc4nc[nH]c34)c[nH]c2c1 |  | active: 17.8 µM |
| COc1ccc2nc(-c3ccco3)c(-c3ccco3)nc2c1 |  | active: 10 µM |
| C[C@H](CO)N1C[C@H](C)[C@@H](CN(C)S(=O)(=O)c2ccc3c(c2)OCCCO3)OCc2cnnn2CCCC1=O | inactive: 0.696% |  |
| O=C(COc1ccc(Br)cc1)Nc1ccc(C(=O)Nc2ccccc2C(=O)O)cc1 |  | inconclusive: 25.1 µM [inhibitor, partial curve] |
| Cc1cc(C(=O)Nc2cccc3c2O[C@@H](CN(C)S(C)(=O)=O)[C@H](C)CN([C@@H](C)CO)C3=O)n(C)n1 | inactive: 4.38% |  |
| O=C(NCc1ccccc1)C(c1ccc(-c2ccccc2)cc1)n1c(=O)c(-c2ccco2)nc2ccccc21 (stereo not given) |  | inconclusive: 10 µM [inhibitor, partial curve] |
| COc1ccc(NC(=O)CSc2nc3nc(-c4cccs4)cc(C(F)(F)F)c3c(=O)[nH]2)c(OC)c1 |  | inconclusive: 25.1 µM [inhibitor, single point] |
| Cc1cnc(NC(=O)CSc2c(Cl)cccc2Cl)s1 | inactive: -18.7% |  |
| COc1ccc2c([N+](=O)[O-])c(Cl)[nH]c2c1 |  | active: 10 µM |
| COc1ccc(CC(=O)NCC(=O)NC(Cc2ccccc2)C(=O)O)cc1 (stereo not given) | inactive: 4.47% |  |
| Cc1noc(C)c1C(=O)Nc1ccc(-n2ccc(C(F)(F)F)n2)cc1 | inactive: 19.3% |  |
| O=C(Cn1cnc2c(OCc3ccccc3)ncnc21)NCc1nc2ccccc2[nH]1 | inactive: 0.539% |  |

| Structure (SMILES) | activity change, negative = inhibition | Potency |
| --- | --- | --- |
| COc1ccc(CCn2c(O)cc3nn(-c4nc5ccccc5s4)c(=O)c-3c2C)cc1 |  | active: 11.2 µM |
| Cc1ccc(C)c(NC(=O)CSc2sc3c(O)cc(=O)[nH]c3c2C#N)c1 |  | inconclusive: 17.8 µM [inhibitor, partial curve] |
| COCCCNC(=O)c1ccc2c(=O)n(CC3CCCO3)c(=S)[nH]c2c1 (stereo not given) | inactive: -8.52% |  |
| Cc1c(Cl)cccc1NC(=O)Cn1nnc(C(=O)NCc2cccs2)c1N | inactive: -10.6% |  |
| O=c1[nH]c2cc3c(cc2cc1CN(Cc1ccccc1)Cc1nnnn1Cc1ccco1)OCCO3 |  | inconclusive: 15.8 µM [inhibitor, partial curve] |
| CC1CCN(C(=O)c2ccc(COc3ccccc3Cl)o2)CC1 | inactive: -1.87% |  |
| O=C(Nc1ccc(-c2nc3ncccc3o2)cc1)c1ccco1 | inactive: -14.4% |  |
| NC(=O)c1c(NC(=O)C2c3ccccc3Oc3ccccc32)sc2c1CCCCC2 |  | inconclusive: 15.8 µM [inhibitor, partial curve] |
| N#CC1=C2SCN(c3ccc(F)cc3)CN2C(=O)CC1c1cccc(F)c1 (stereo not given) |  | active: 20 µM |
| CC1CCCCC12NC(=O)N(CC(=O)Nc1sc3c(c1C(N)=O)CCC3)C2=O (stereo not given) |  | inconclusive: 31.6 µM [inhibitor, partial curve] |
| O=C(O)C1CSC(c2coc3ccccc3c2=O)N1 (stereo not given) | inactive: -14.7% |  |
| Cc1ccc(-n2c(SCC(=O)Nc3ccc4c5c(cccc35)CC4)nc(O)cc2=O)cc1 | inactive: -25.8% |  |
| O=C(Nc1nc(-c2ccco2)c(-c2ccco2)s1)c1cnccn1 |  | inconclusive: 3.98 µM [inhibitor, full curve] |
| COc1ccc(C(CC(=O)N2CCCCC2)c2c(OC)cc(OC)c3c(-c4ccccc4)cc(=O)oc23)cc1 (stereo not given) |  | inconclusive: 14.1 µM [inhibitor, partial curve] |
| CC(C)(C)n1nnnc1SCC(=O)Nc1nn(-c2ccccc2)nc1C(N)=O |  | inconclusive: 2.82 µM [inhibitor, full curve] |
| O=C(c1ccccc1)c1ccc2nc(-c3ccco3)c(-c3ccco3)nc2c1 |  | active: 4.47 µM |
| COc1ccc(N2CCN(C(=O)Cc3ccc(S(=O)(=O)N4CCOCC4)s3)CC2)cc1 |  | inconclusive: 14.1 µM [inhibitor, partial curve] |
| COc1cc2nc(Nc3ccc(C)c(Cl)c3)nc(N)c2cc1OC |  | active: 15.8 µM |
| CCN1CCN(Cc2ccc(NC(=O)c3ccc(C)c(NC(=O)c4csc(-c5ccncc5)n4)c3)cc2C(F)(F)F)CC1 |  | inconclusive: 28.2 µM [inhibitor, single point] |
| Cc1cc(Nc2ccccc2C(=O)O)n2ncnc2n1 |  | inconclusive: 31.6 µM [inhibitor, partial curve] |
| CCCc1cc(=O)[nH]c(SCC(=O)Nc2sc3c(c2C#N)CCC(C)C3)n1 (stereo not given) |  | inconclusive: 17.8 µM [inhibitor, partial curve] |
| CCCN(C(=O)c1cc(-c2ccco2)nc2ccccc12)c1c(N)n(Cc2ccccc2)c(=O)[nH]c1=O |  | active: 15.8 µM |
| Cc1c(C(=O)OCC(C)C)[nH]c2c1C(=O)CC(c1ccco1)C2 (stereo not given) |  | inconclusive: 28.2 µM [inhibitor, partial curve] |
| CCc1nc2sc3ccccc3c(=O)c2c(=O)n1Cc1ccco1 |  | inconclusive: 28.2 µM [inhibitor, partial curve] |
| O=c1c2ccccc2[nH]c2ccc(O)cc12 |  | active: 20 µM |

| Structure (SMILES) | activity change, negative = inhibition | Potency |
| --- | --- | --- |
| CC(C)(C)C1=Nn2c(nnc2-c2n[nH]c3c2CCC3)SC1 |  | inconclusive: 31.6 µM [inhibitor, single point] |
| O=C(NCCc1ccccc1)C(c1cccs1)N(C(=O)c1csnn1)C1CC1 (stereo not given) | inactive: -0.725% |  |
| C[C@H](NC(=O)c1nc[nH]c1C(=O)N[C@@H](C)C(=O)OC(C)(C)C)C(=O)OC(C)(C)C | inactive: 2.51% |  |
| O=C(Oc1cc2oc(=O)cc(-c3ccccc3)c2cc1Cl)C1CCCCC1 |  | inconclusive: 31.6 µM [inhibitor, partial curve] |
| CCc1c(C)sc(NC(=O)c2ccoc2C)c1C(N)=O |  | active: 12.6 µM |
| O=c1[nH]c2ccccc2n2c(-c3ccccc3)nnc12 |  | active: 5.01 µM |
| Cc1c(C(=O)O)cccc1-c1ccc(/C=C2\SC(=O)NC2=O)o1 |  | inconclusive: 15.8 µM [inhibitor, partial curve] |
| NC(=O)c1ccc(-n2c(CCC(=O)O)ccc2-c2cccs2)cc1 |  | active: 3.98 µM |
| CCCCc1c(Cc2ccccc2)ncn1CCc1ccccc1OC | inactive: 10.2% |  |
| O=S(=O)(Nc1ccc(Cl)cc1)c1ccc(N2CCOCC2)c(NC(=S)NCCN2CCOCC2)c1 |  | inconclusive: 35.5 µM [inhibitor, partial curve] |
| COc1cc(OC)cc(C(=O)Nc2nc3ccc(S(C)(=O)=O)cc3s2)c1 |  | inconclusive: 6.31 µM [inhibitor, full curve] |
| COCCn1c(=S)[nH]c2cc(C(=O)NCCc3ccccc3)ccc2c1=O |  | inconclusive: 11.2 µM [inhibitor, partial curve] |
| COc1cccc(C(=O)Nc2nc3ccc(S(C)(=O)=O)cc3s2)c1 |  | inconclusive: 28.2 µM [inhibitor, partial curve] |
| O=C(CSc1n[nH]c(-c2cccnc2)n1)OC1CCCCC1 | inactive: -6.36% |  |
| Cc1ccc(Nc2nc(C)c3c(n2)CC(C)CC3=O)c(C)c1 (stereo not given) | inactive: -0.0066% |  |
| CCOC(=O)c1nnn(-c2ccccc2)c1C | inactive: -6.41% |  |
| Cc1nc(NC(=O)c2ccccc2)sc1-c1cc(C(=O)N2CCOCC2)nn1Cc1ccccc1 |  | inconclusive: 25.1 µM [inhibitor, partial curve] |
| Cc1nc2ccccc2nc1OCC(=O)NCc1ccc2c(c1)OCO2 | inactive: -6.61% |  |
| CN(C)S(=O)(=O)c1ccc(C(=O)Nc2cc3c(cc2C(=O)O)OCCCO3)cc1 |  | inconclusive: 31.6 µM [inhibitor, single point] |
| CCOc1ccc(C(Nc2cccnc2)c2cc(Cl)c3cccnc3c2O)cc1 (stereo not given) |  | active: 6.31 µM |
| Fc1cccc(Cl)c1CNc1ccc(N2CCCC2)cc1 | inconclusive: -32% [inhibitor] |  |
| S=C(NCc1ccco1)NCc1ccco1 |  | active: 14.1 µM |
| COc1ccc(C(CNC(=O)c2ccc(OCc3cscn3)cc2)N2CCCC2)cc1 (stereo not given) | inactive: -4.41% |  |
| CC(Oc1ccc(F)cc1)C(=O)N1CCN(c2ncccn2)CC1 (stereo not given) | inactive: 0.356% |  |
| CCOc1ccc(NC(=O)CN(C)C(=O)c2cc3c(s2)CCC3)cc1OCC |  | inconclusive: 15.8 µM [inhibitor, partial curve] |
